# Experimental data reported in PubChem BioAssay AID624296 (National Center for Advancing Translational Sciences (NCATS), 2012).
# In all, about 350,000 compounds went through this assay and about 9,900 (2.8%) were called active. This list was built around the results that the source calls inconclusive (neither active nor inactive); the mix of calls is not that of the screen. Calls follow the shape of the dose curve; as a rule, active = well fitted activation curve with a large enough effect; inconclusive = small, poorly fitted or top-dose-only effect; inactive = no such curve, though single readings can be large or run the other way. Potencies of inconclusive entries are left out as doubtful fits.
# Experiment: A quantitative high throughput screen for small molecules that induce DNA re-replication in MCF 10a normal breast cells. Also: nearly all actives have a fitted effect of over 50% in size. As to activity, positive = re-replication: % of control where 0% means no effect.
# Conditions: MCF 10A DNA re-replication, Hoechst nuclear intensity, 48 h; activity, positive = re-replication: at 46.1 µM (top of the series)
# Potency is read from the fitted curve at half-maximal effect; tags tell the direction and shape of the fitted curve.
Compound,Potency,"activity, positive = re-replication"
CC(C)Cn1cnc2c(c(-c3ccccc3)c(-c3ccccc3)n2Cc2ccco2)c1=N,"inconclusive [activator, single point]",–
CCCCCCCC(=O)O,"inconclusive [activator, full curve, poor fit]",–
CCn1c(C(=O)N2CCC(C(=O)NCCCSC3CCCCC3)CC2)cc2sccc21,inactive,–
Cc1nn(C)cc1CN(C)C(=O)CC12CC3CC(CC(C3)C1)C2,"inconclusive [activator, partial curve, poor fit]",–
Cc1nc(CCN2C(=O)c3ccccc3C2=O)n[nH]1,"inconclusive [activator, partial curve, poor fit]",–
COc1ccc(CNc2nc3ccccc3n2CCN2CCCCC2)cc1,"inconclusive [activator, single point]",–
CC(C)Cn1c(C23CC4CC(CC(C4)C2)C3)n[nH]c1=S,"inconclusive [activator, single point]",–
O=C1C(=O)N(CCN2CCOCC2)C(c2ccccn2)/C1=C(/O)c1ccc(F)cc1 (stereo not given),"inconclusive [activator, single point]",–
COc1ccc(OC)c(-c2nc(C(=O)NC3CCN(Cc4ccccc4)CC3)cc3c2[nH]c2ccccc23)c1,"inconclusive [activator, single point]",–
CCC(C)NC(=O)c1cc(-c2ccccc2O)on1 (stereo not given),"inconclusive [activator, partial curve, poor fit]",–
CC12CN3CC(C)(CN(C1)C3c1ccccc1Cl)C2O (stereo not given),"inconclusive [activator, full curve, poor fit]",–
Fc1ccc(CSc2nsc(SCc3ccc(F)cc3)n2)cc1,"inconclusive [activator, partial curve, poor fit]",–
Nc1c2c(nc3sc4c(c13)CCCC4)CCCCCC2,"inconclusive [activator, partial curve, poor fit]",–
Cc1ccccc1C(=O)N=c1ccn(-c2nc3ccccc3nc2NS(=O)(=O)c2ccc(F)cc2)cc1,"inconclusive [activator, single point]",–
COc1ccc(CCNc2oc(-c3cccc4ccccc34)nc2P(=O)(OC)OC)cc1OC,"inconclusive [activator, single point]",–
CC(=O)c1ccc(OCC(O)CN(C)CCOc2ccc(Br)cc2)cc1 (stereo not given),inactive,–
O=C(O)c1ccc2c(c1)S(=O)(=O)N=C1CCCCCN12,"inconclusive [activator, full curve, poor fit]",–
CCN(c1ccccc1)S(=O)(=O)c1ccc(Oc2ccc(-n3ccnc3)cc2)nc1,"inconclusive [activator, single point]",–
Cc1cc(C)c2c(c1)CC(C)(C)CC2=O,inactive,–
Cc1ccc(CN(C)S(=O)(=O)c2c(C)noc2/C=C/N(C)C)cc1,"inconclusive [activator, single point]",–
CC(=O)N(C)c1ccc(C=C2C=Cc3ccccc32)cc1,"inconclusive [activator, single point]",–
Cc1oc(-c2cccs2)nc1CS(=O)CC(=O)NC1CCCCCC1 (stereo not given),"inconclusive [activator, single point]",–

Compound,Potency,"activity, positive = re-replication"
CCOC(=O)c1cc2c(ccn2C)n1CC(=O)N1C(C)CCCC1C (stereo not given),"inconclusive [activator, full curve, poor fit]",–
O=C(N/N=C/c1ccccc1F)c1csc2c1CCCC2,"inconclusive [activator, single point]",–
Cc1oc(-c2cc(F)cc(F)c2)nc1CN1CCSCC1,inactive,–
CCOC(=O)Nc1ccc2c(CN(C)Cc3ccc(F)cc3)cc(=O)oc2c1,"inconclusive [activator, single point]",–
O=[N+]([O-])c1cccnc1N1CCC(c2cc(-c3cccc(C(F)(F)F)c3)n[nH]2)CC1,"inconclusive [activator, single point]",–
Cc1cc(SCC(=O)NC2CC2)nc2ccccc12,inactive,–
O=S(=O)(NCc1cc(-c2ccccc2Cl)no1)c1ccc(Cl)cc1,"inconclusive [activator, single point]",–
N/C(Cn1cncn1)=N\NC(=O)c1ccc(Cl)cc1Cl,"inconclusive [activator, full curve, poor fit]",–
COc1ccc(C(=O)c2c(N)sc3c2CCN(C(=O)OC(C)(C)C)C3)cc1,"inconclusive [activator, partial curve, poor fit]",–
O=C(Nc1ccc(Cc2ccc(NC(=O)C3CC3)cc2)cc1)C1CC1,"inconclusive [activator, single point]",–
O=C(CNc1cccc(S(=O)(=O)N2CCOCC2)c1)Nc1cccc(Br)c1,inactive,–
O=c1[nH]c(NCCO)nc2c1C1(CCCC1)Cc1ccccc1-2,"inconclusive [activator, single point]",–
Cc1ccc(C)c(OCC(O)CN2C(C)CCCC2C)c1 (stereo not given),–,inactive: 2.88% [at 9.22 µM]
CN(C)c1ccc(S(=O)(=O)N(C)C)cc1NC(=O)Cc1cccc2ccccc12,inactive,–
CCCC(=O)Nc1ccc(NC(=O)C23CC4CC(CC(C4)C2)C3)cn1,"inconclusive [activator, full curve, poor fit]",–
CCc1cc2c(COC(=O)c3c(C)noc3C)cc(=O)oc2cc1O,inactive,–
COc1ccc(CCNC(=O)c2cc(C(=O)c3cc(C)ccc3O)cn(CCc3ccc(OC)cc3)c2=O)cc1,"inconclusive [activator, single point]",–
COc1ccc(/C=N/NC(=O)c2[nH]c3ccc(Br)cc3c2-c2ccccc2)c(C(=O)O)c1OC,inactive,–
CCCCCCCCCC[N+](C)(C)CC/C=C1/c2ccccc2Sc2ccc(Cl)cc21,"inconclusive [activator, single point]",–
CCn1nnnc1-c1ccc(OC)c(S(=O)(=O)Nc2ccc(C(=O)OC)cc2)c1,"inconclusive [activator, single point]",–
CN(C)S(=O)(=O)c1ccc(Cl)c(NC(=O)CN2CCN(Cc3ccc4c(c3)OCO4)CC2)c1,"inconclusive [activator, partial curve, poor fit]",–
COc1ccc(-n2nc(C(=O)N3CCN(c4ccc(F)cc4)CC3)c3ccccc3c2=O)c(OC)c1,inactive,–

Compound,Potency,"activity, positive = re-replication"
CCc1ccc(-c2cc(C(=O)NCc3ccccn3)c3ccccc3n2)cc1,"inconclusive [activator, single point]",–
Cc1cccc(OCC(O)Cn2c(=N)n(CCN3CCCCC3)c3ccccc32)c1 (stereo not given),"inconclusive [activator, single point]",–
CCC1CCc2sc(C(=O)NCC(c3ccc(OC)cc3)N3CCCC3)cc2C1 (stereo not given),"inconclusive [activator, partial curve]",–
O=C(N/N=C/c1sc2ccccc2c1O)c1cccc2ccccc12,"inconclusive [activator, partial curve]",–
CC1CCC2(CC1)NC(=O)N(CC(=O)N1CC(C)CC(C)C1)C2=O (stereo not given),inactive,–
Cc1ccc(OCCCCNC(C)c2ccccc2)c(C)c1 (stereo not given),"inconclusive [activator, partial curve, poor fit]",–
CCOc1ccccc1C(=S)NC1CCCCC1,"inconclusive [activator, partial curve, poor fit]",–
CCOc1ccccc1NC(=S)Nc1ccc(S(N)(=O)=O)cc1,inactive,–
Cc1cc(CSc2ccccc2)ccc1NC(=O)c1cccc([N+](=O)[O-])c1,"inconclusive [activator, partial curve, poor fit]",–
Cc1csc2c(=O)sc(NC(=O)c3ccco3)nc12,"inconclusive [activator, partial curve, poor fit]",–
Cc1cccc2cc(CN(CCN3CCCC3)C(=O)NC3CCCCC3)c(=O)[nH]c12,"inconclusive [activator, partial curve, poor fit]",–
CC(C)(C)c1ccc(C(=O)NCC2CCCN2S(=O)(=O)c2ccccc2)cc1 (stereo not given),"inconclusive [activator, partial curve]",–
CC12CCC(C(=O)NC(c3ccccc3)c3ccccc3)(OC1=O)C2(C)C (stereo not given),"inconclusive [activator, partial curve, poor fit]",–
O=[N+]([O-])c1ccc(COc2ccc(-c3[nH]ncc3-c3ccc(Cl)cc3)c(O)c2)cc1,active: 23.1 µM,–
COc1ccc(C(C(=O)NC2CCCC2)N(C(=O)c2ccoc2C)c2ccccc2)cc1 (stereo not given),"inconclusive [activator, partial curve, poor fit]",–
Cc1cc(C)c2c(N)c(C(=O)c3ccccc3Cl)sc2n1,"inconclusive [activator, single point]",–
COC(=O)C1=C(C)N(CCCC(=O)O)C(=O)NC1c1cccc2ccccc12 (stereo not given),"inconclusive [activator, partial curve, poor fit]",–
CCCNC(=S)NC1CC2CCCC(C1)N2CC(C)C (stereo not given),active: 14.6 µM,–
Cc1ccc(C)c(NC(=S)c2ccccn2)c1,"inconclusive [activator, single point]",–
O=[N+]([O-])c1cccnc1S(=O)(=O)c1ccccc1,active: 2.91 µM,–
CCOc1ccccc1NC(=O)C1CCCCN1S(=O)(=O)c1ccc(F)cc1 (stereo not given),"inconclusive [activator, partial curve, poor fit]",–
